According to PubChem BioAssay AID463173 (ICCB-Longwood Screening Facility, Harvard Medical School, 2010):
Out of some 52,000 compounds screened, about 1,700 (3.3%) were called active. Cut-off read from the data, not from the text of the source: active = survival mostly below about 52% (no sharp cut-off); inactive = mostly above about 56%. The list shows a part of the results.

These compounds were tested on Wild type (assay: growth inhibition of S. aureus wild type versus tarO mutant, primary screen, teichoic acid synthesis inhibitors, RN4220, OD600 (AID 463173)). Details: S. aureus RN4220 wild type/DeltatarO growth, OD600, 18 h, hits give low values, screened at 18.75 µg/mL (by protocol).
With `COc1ccccc1C(=O)OCc1cc(=O)n2nc(C3CC3)sc2n1` the survival was inactive: 99%.
For `CCC1CCc2nc3sc(C(=O)Nc4ccc(F)c(Cl)c4)c(N)c3cc2C1` (centres undefined), the survival was inactive: 88%.
For `COc1ccc2nc(-c3ccc(N)cc3)[nH]c2c1`, the survival was inactive: 99%.
In the case of `COc1ccccc1CNC(=O)CSc1ncc2c(n1)-c1ccc(Cl)cc1N(Cc1ccccc1)S2(=O)=O`, the survival is reported as active: 0%.
With `COc1ccc(NC(=O)C(c2ccc(C)cc2)N(C)C(=O)Cc2cccs2)cc1` (centres undefined) the survival was inactive: 85%.
For `COc1ccccc1Nc1nc(Nc2cccc(C(F)(F)F)c2)nc(N2CCOCC2)n1`, the survival was inactive: 127%.
`CC(C)(C)c1ccc(OCCn2ccccc2=O)cc1` was tested, and the survival was inactive: 103%.
`Cc1c(Cl)cccc1NC(=O)C(C)n1c(=O)cc(-c2ccccc2)c2c(C)nn(C)c21` (centres undefined) was tested, and the survival was inactive: 91%.
In the case of `CCc1ccc(NC(=O)c2sc3nc(C)c(Cl)c(C)c3c2N)cc1`, the survival is reported as inactive: 103%.
In the case of `O=C(Cn1c(-c2cccs2)cc2cc(Cl)ccc21)N1CCN(c2ccccc2)CC1`, the survival is reported as inactive: 80%.
`Cc1cccc(N(CC(=O)O)S(C)(=O)=O)c1` was tested, and the survival was inactive: 100%.
For `O=C(Cn1c(=O)c2cc(Cl)ccc2n2nncc12)Nc1ccccc1`, the survival was inactive: 68%.
In the case of `Cc1ccc(NC(=O)C2CCCN2S(=O)(=O)c2ccc3c(c2)CCCC(=O)N3)cc1C` (centres undefined), the survival is reported as inactive: 66%.
For `COc1ccc(-c2cccc(NS(=O)(=O)c3cc(C)c(OC)c(C)c3C)c2)nn1`, the survival was inactive: 72%.
For `CCOc1ccccc1C(=O)N1CC(=O)Nc2ccc(Cl)cc2C1c1ccccc1` (centres undefined), the survival was inactive: 94%.
`Cc1nnc(NC(=O)C2CCCN(c3ncccn3)C2)s1` (centres undefined) was tested, and the survival was inactive: 103%.
For `C=CCC(CC=C)(CNC(=O)C(=O)Nc1cccc(C(F)(F)F)c1)c1ccccc1`, the survival was inactive: 120%.
In the case of `O=C(CC(c1cccs1)N1Cc2ccccc2C1=O)Nc1ccc(F)c(Cl)c1` (centres undefined), the survival is reported as inactive: 77%.
For `CC(=O)Nc1cc(C(=O)NCc2ccc(C)cc2)ccc1Sc1ccc(C)cc1`, the survival was inactive: 72%.
`COc1ccc(Cl)cc1NC(=O)CN(C)S(=O)(=O)c1ccc2c(c1)CCCN2C(C)=O` was tested, and the survival was inactive: 80%.
For `CC(CNC(=O)Cn1ccc2cc(S(=O)(=O)N3CCCCCC3)ccc21)c1ccccc1` (centres undefined), the survival was inactive: 120%.
For `CCOC(=O)c1ccc(N2CCN(c3cccc(Cl)c3)CC2)c(NC(=O)Nc2ccc(OC)cc2OC)c1`, the survival was inactive: 90%.
For `CCc1ccc(-c2nc(CN3CCCC(C(=O)N4CCN(c5cc(Cl)ccc5C)CC4)C3)c(C)o2)cc1` (centres undefined), the survival was inactive: 84%.
With `CCOC(=O)CSc1nc2ccccc2c(=O)n1CCc1ccc(OC)c(OC)c1` the survival was inactive: 124%.
In the case of `CC(=O)NC(NC(C)=O)c1ccc2c(c1)OCO2`, the survival is reported as inactive: 96%.
With `CCC1CN(C(=O)N2CCC(C(=O)NCCN(CC)CC)CC2)c2ccccc2O1` (centres undefined) the survival was inactive: 88%.
For `COc1ccc(-c2onc(C)c2C)cc1S(=O)(=O)NCC1CCN(Cc2ccccc2F)CC1`, the survival was inactive: 70%.
In the case of `Cc1cccc(-n2c(=O)c3c(c4cc(C)ccc4n3C)n(CC(=O)NCCC3=CCCCC3)c2=O)c1`, the survival is reported as inactive: 80%.
For `COc1ccc(-c2noc(-c3cccnc3NCc3ccco3)n2)cc1`, the survival was inactive: 128%.
With `CCc1cccc(C)c1NC(=O)CSc1nc(C)cc(C)c1C(=O)Nc1ccccc1` the survival was inactive: 77%.
For `CC(=O)NC1=NN(C(C)=O)C2(S1)C(=O)Nc1ccccc12` (centres undefined), the survival was inactive: 96%.
With `Cc1ccc(Oc2c(C(F)(F)F)oc3cc(OCC(=O)NC4CCCCC4)ccc3c2=O)cc1` the survival was inactive: 63%.
With `Cc1onc(-c2ccc(F)cc2F)c1C(=O)Nc1cccc(C(F)(F)F)c1` the survival was inactive: 89%.
`O=C(Cn1cc(/C=C2\C(=O)NC(=O)N(Cc3ccccc3)C2=O)c2ccccc21)NCc1ccco1` was tested, and the survival was inactive: 98%.
`CC(C)Sc1ncc(Cl)c(C(=O)Nc2nnc(C(C)C)s2)n1` was tested, and the survival was inactive: 82%.
`CCc1ccc(NC(=O)Cn2c(=O)oc3cc(S(=O)(=O)N4CCCCCC4)ccc32)cc1` was tested, and the survival was inactive: 82%.
`CN(C(=O)C(=O)Nc1ccc2nc3n(c(=O)c2c1)CCCCC3)c1cccc(C(F)(F)F)c1` was tested, and the survival was inactive: 72%.
`CCc1ccc(CNC(=O)c2cc(-c3ccc(Br)s3)nc3ccccc23)cc1` was tested, and the survival was inactive: 80%.
`COc1cc(-c2nc3ccc(Cl)cn3c2NC(C)(C)C)ccc1O` was tested, and the survival was inactive: 105%.
For `COc1ccc(OC)c(-c2cc(C(=O)NC(C)c3ccccc3)no2)c1` (centres undefined), the survival was active: -12%.
In the case of `COc1cccc(-c2ccc3c(N)c(C(=O)NCc4ccc(Cl)cc4)sc3n2)c1`, the survival is reported as inactive: 65%.
With `CCCOc1ccc(C2C(=O)N(C3CCC(C)CC3)CC(=O)N2CCC2=CCCCC2)cc1OC` (centres undefined) the survival was inactive: 87%.
For `Cc1cccc(N2CCN(C3(c4ccccc4)C(=O)c4ccccc4C3=O)CC2)c1C`, the survival was inactive: 71%.
`O=S(=O)(Nc1ccc2nc(-c3cccc(Cl)c3)oc2c1)c1ccccc1` was tested, and the survival was inactive: 75%.
In the case of `Cc1ccc2onc(CC(=O)N(C)c3ccccc3)c2c1`, the survival is reported as inactive: 79%.
For `COc1ccc(CCNC(=O)c2c(C)nn(-c3ccc(F)cc3)c2-n2cccc2)cc1OC`, the survival was inactive: 71%.
In the case of `Cc1ccc(S(=O)(=O)N2CCOCC2)cc1C(=O)Nc1ccccc1C(=O)O`, the survival is reported as inactive: 67%.
`O=S(=O)(Nc1nc2n(n1)C(c1ccc(F)cc1)C=C(c1ccccc1)N2)c1ccc(Cl)cc1` (centres undefined) was tested, and the survival was active: 14%.
For `O=C(CCc1nc2cccnc2n1Cc1cccs1)Nc1cccc(Cl)c1`, the survival was inactive: 70%.
For `COc1ccccc1CNC(=O)c1ccc2nc(-c3ccccc3)c(-c3ccccc3)nc2c1`, the survival was inactive: 70%.
`CCOc1ccc(CNC(=O)c2ccc(NC(=O)N3CCCCc4ccccc43)cc2)cc1OC` was tested, and the survival was inactive: 45%.
In the case of `CCn1cc(C(=O)NCc2ccc(C)cc2)c(=O)c2cc(S(=O)(=O)N3CCCCCC3)ccc21`, the survival is reported as inactive: 72%.
For `CC(C)CNc1nc(Oc2ccc(OCC(N)=O)nn2)nc(N2CCOCC2)n1`, the survival was inactive: 84%.
For `c1ccc(-c2nonc2NCNc2nonc2-c2ccccc2)cc1`, the survival was inactive: 89%.
With `CCOC(=O)c1cc(-c2ccccc2)n(CCC(=O)Nc2ccc(Cl)c(C(F)(F)F)c2)c1C` the survival was inactive: 74%.
`Cc1cccc(NS(=O)(=O)c2ccc(-n3cccn3)cc2)c1C` was tested, and the survival was inactive: 65%.
For `Cc1nn(C)c2c1c(C(F)(F)F)cc(=O)n2Cc1cccc(Br)c1`, the survival was inactive: 101%.
For `COc1cc(OC)cc(C(=O)N2CCC(C(=O)NC(C)C)CC2)c1`, the survival was inactive: 112%.
For `O=C(Nc1cccc(Cl)c1)NC1(C(=O)Nc2ccc3c(c2)OCCO3)CCCCC1`, the survival was inactive: 99%.
`Cn1cc(S(=O)(=O)N2CCCCCC2)cc1C(=O)NCc1ccccc1Cl` was tested, and the survival was inactive: 121%.
With `CCOc1ccc(-n2c(-c3ccccc3)c(C)n3c4c(=O)n(C)c(=O)n(C)c4nc23)cc1` the survival was inactive: 68%.
With `CCCNC(=O)C1CCN(c2ncnc3c2nc2n3CCCCC2)CC1` the survival was inactive: 64%.
For `COc1ccc(NC(=O)c2coc(C)c2)cc1`, the survival was inactive: 102%.
`CCCCCOc1ccc(/C=C/C(=O)Nc2sc(C(C)=O)c(C)c2C(=O)OCC)cc1OC` was tested, and the survival was inactive: 76%.
In the case of `CCc1nnc(NC(=O)c2nc(SCc3ccccc3C)ncc2Cl)s1`, the survival is reported as inactive: 90%.
In the case of `CCc1ccc(-n2c(=O)c3sc4ccccc4c3n(Cc3cccc(F)c3)c2=O)cc1`, the survival is reported as inactive: 90%.
With `CCOC(=O)N1CCc2c(sc(NCc3ccc(OC)c(OC)c3OC)c2C(=O)Nc2ccc(OC)cc2OC)C1` the survival was inactive: 67%.
With `CCCC(=O)NCC(c1ccc2c(c1)OCO2)N1CCN(c2ccccc2)CC1` (centres undefined) the survival was inactive: 92%.
For `CCOC(=O)c1c(NC(=O)CC)sc(C(=O)OC)c1C`, the survival was inactive: 110%.
`Cc1oc(C)c2c(=O)cc(-c3ccc4c(c3)OCO4)cc(OC(=O)c3ccccc3Cl)c12` was tested, and the survival was inactive: 100%.
`Cc1c(Cl)cccc1NC(=O)Cn1c(=O)nc(-c2ccccc2)c2ccccc21` was tested, and the survival was inactive: 65%.
With `CS(=O)(=O)N(CC(=O)O)C1CCCCC1` the survival was inactive: 113%.
In the case of `CCN1C(=O)/C(=C2/Sc3ccc(OC)cc3N2C)SC1=Nc1cccc(O)c1`, the survival is reported as inactive: 110%.
`CC1(CCC#N)N=C(SCCC#N)N(c2ccccc2)C1=O` (centres undefined) was tested, and the survival was inactive: 91%.
In the case of `CCN(CC)C(=O)c1sc(NC(=O)C(C)Sc2nc(-c3ccccc3)cc(C(F)(F)F)n2)c(C(=O)OC)c1C` (centres undefined), the survival is reported as inactive: 118%.
`CCC(=O)Nc1ccc(S(=O)(=O)NCc2ccc3c(c2)CCN3C(=O)c2ccc(C)cc2)cc1` was tested, and the survival was inactive: 110%.
In the case of `COc1ccc(C2=CC(c3ccccc3F)n3ncc(C(=O)Nc4ccc(C)cc4)c3N2)cc1` (centres undefined), the survival is reported as inactive: 94%.
With `CCOC(=O)c1c(-c2ccccc2)csc1NC(=O)c1nc(S(=O)(=O)CC)ncc1Cl` the survival was active: 2%.
In the case of `COC(=O)c1ccccc1NC(=O)CCC(=O)N1CCOc2ccccc21`, the survival is reported as inactive: 81%.
For `CCc1c(C)nc(SCC(=O)N(C(C)C)C(C)C)[nH]c1=O`, the survival was inactive: 116%.
With `COc1ccccc1Cn1ccn(Cc2c(F)cccc2Cl)c(=O)c1=O` the survival was inactive: 107%.
With `N#Cc1ccccc1CN1c2cccc3cccc(c23)S1(=O)=O` the survival was inactive: 107%.
In the case of `CN(C)c1oc(/C=C/c2ccc(F)cc2)nc1C#N`, the survival is reported as inactive: 87%.
`O=C(Nc1ccc(N2CCCC2)cc1)c1ccc(Br)o1` was tested, and the survival was inactive: 106%.
For `Cc1cccc(-c2c3c(=O)n(C)c(=O)n(C)c3cn2-c2cc(N)c(Cl)cc2Cl)c1`, the survival was inactive: 54%.
With `CSc1ccc(-c2nc3ncccn3c2Nc2ccc(C)c(C)c2)cc1` the survival was inactive: 60%.
For `Nc1cc(=O)nc(SCC(=O)Nc2cccc(Cl)c2)n1CCc1ccccc1`, the survival was inactive: 94%.
In the case of `CCN(c1ccccc1)c1nnc(NC(=O)Nc2cccc(Cl)c2C)s1`, the survival is reported as inactive: 86%.
With `CC(=O)c1ccc(NC(=O)Nc2nnc(N3CCCC(C)C3)s2)cc1` (centres undefined) the survival was inactive: 76%.
